Whole data set: some 33,000 sequences, median “E-score (-0.5 to 0.5)” near -0.054, cut for the highest 2% near 0.35. This is one part of the list.

In the test the target is T1, Stb5 (UniProt P38699).
T1 sequence: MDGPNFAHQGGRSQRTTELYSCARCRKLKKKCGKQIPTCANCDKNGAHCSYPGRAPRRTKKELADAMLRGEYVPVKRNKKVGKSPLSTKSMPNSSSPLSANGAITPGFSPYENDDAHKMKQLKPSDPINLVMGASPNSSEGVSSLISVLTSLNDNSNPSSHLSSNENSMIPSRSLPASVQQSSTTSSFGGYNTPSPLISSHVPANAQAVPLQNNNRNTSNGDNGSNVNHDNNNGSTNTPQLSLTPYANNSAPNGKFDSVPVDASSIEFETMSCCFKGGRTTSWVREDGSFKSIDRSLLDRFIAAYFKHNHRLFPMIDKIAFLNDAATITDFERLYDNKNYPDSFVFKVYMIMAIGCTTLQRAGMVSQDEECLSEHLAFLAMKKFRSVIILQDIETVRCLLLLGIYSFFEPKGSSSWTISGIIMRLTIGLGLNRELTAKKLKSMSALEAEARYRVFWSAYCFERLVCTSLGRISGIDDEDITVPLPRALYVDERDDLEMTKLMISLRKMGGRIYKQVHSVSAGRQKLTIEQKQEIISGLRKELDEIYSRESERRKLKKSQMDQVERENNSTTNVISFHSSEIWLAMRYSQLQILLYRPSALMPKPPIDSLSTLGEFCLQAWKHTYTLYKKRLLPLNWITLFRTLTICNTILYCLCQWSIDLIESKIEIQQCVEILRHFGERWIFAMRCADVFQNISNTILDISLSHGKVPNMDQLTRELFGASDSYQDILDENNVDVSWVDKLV
Nature of the test: PBM E-score (8-mer binding enrichment) (E-score (-0.5 to 0.5)); higher = stronger / more preferred TF binding; most listed sequences are background and not binding sites. Conditions: protein concentration: 200 nM; construct: GST-full length. The gist of the method:
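Full-length yeast transcription factors or their DNA-binding domains, GST-tagged and expressed with PURExpress, were applied at about 100-200 nM to universal all-10-mer Agilent arrays. These arrays had been made double-stranded by primer extension on fresh or once-stripped slides. Detection used fluorescent anti-GST, normalisation used masliner, and E-scores for ungapped eight-base words pooled with reverse complements came from the Universal PBM Analysis Suite.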
Take GAATTGCA: the “PBM E-score” value was -0.0977.

Consider CCAGCTCC, for which the “PBM E-score” value is -0.0313.

In the case of ATACCTAC, the “PBM E-score” value is -0.0145.

Take ACTCGAAC: the “PBM E-score” value is 0.00108.

Consider GATGACCC, for which the “PBM E-score” value is -0.304.

Take AGACTGCG: the “PBM E-score” value was -0.124.

As for CTATGGAG, the “PBM E-score” value is -0.195.

As to TATTCTGA, the “PBM E-score” value is -0.0984.

On to AAGTTTAC, for which the “PBM E-score” value is 0.0415.

Take ATAGTTTA: the “PBM E-score” value is -0.0841.

Consider CTAGACGA, for which the “PBM E-score” value was -0.244.

With GCTTGAGA, the “PBM E-score” value was -0.147.

In the case of AGTACGGC, the “PBM E-score” value is 0.136.

On to AGACTGGG, for which the “PBM E-score” value is -0.255.

On to ACACCGGG, for which the “PBM E-score” value came out at 0.417.

In the case of AAAGACTT, the “PBM E-score” value is -0.201.

With ACTGAGCT, the “PBM E-score” value is -0.0384.

Regarding CTGAGATA, the “PBM E-score” value came out at 0.00305.

With GTCAATGA, the “PBM E-score” value was -0.142.

Regarding AAAATGCG, the “PBM E-score” value was determined as 0.126.

Take CAAGGCGC: the “PBM E-score” value turned out to be 0.0884.

As to GGGAAAGA, the “PBM E-score” value is -0.287.

With GGGTGCAA, the “PBM E-score” value came out at 0.0314.

With TAAAGATA, the “PBM E-score” value was -0.0745.

For CTTCACTA, the “PBM E-score” value is -0.138.

Consider TAGTGCCA, for which the “PBM E-score” value was determined as 0.0726.

Take ACGCTAGA: the “PBM E-score” value was -0.0848.

In the case of ACCGAGGA, the “PBM E-score” value turned out to be 0.195.

As for AGTATGTA, the “PBM E-score” value is -0.129.

For the sequence TAGTAAAA, the “PBM E-score” value was -0.0474.

For ATCAAGTA, the “PBM E-score” value was -0.133.

As for ACAATCTG, the “PBM E-score” value is -0.0232.

Take CCATACGA: the “PBM E-score” value is -0.102.

In the case of TATCCTAA, the “PBM E-score” value is -0.109.

As for AAGCAGTC, the “PBM E-score” value is -0.226.

For the sequence ACACCGGC, the “PBM E-score” value was found to be 0.4.

For CGACTGTA, the “PBM E-score” value worked out at 0.104.

In the case of ATATGCTA, the “PBM E-score” value was -0.0569.

Regarding GCAAATAA, the “PBM E-score” value amounted to 0.0787.

Take CGTCTCTA: the “PBM E-score” value was -0.145.

Turning to AACCTTCG, the “PBM E-score” value is -0.0851.

For AACCGTCA, the “PBM E-score” value was found to be 0.0839.

As to CTGGCGAC, the “PBM E-score” value was -0.194.

Consider TTGTCAAA, for which the “PBM E-score” value is -0.0497.

As for GTACTCAC, the “PBM E-score” value is -0.197.

Turning to AAGTAAAG, the “PBM E-score” value was -0.0899.

Consider TAGGTAGA, for which the “PBM E-score” value is -0.147.

Consider CCTTCAAA, for which the “PBM E-score” value was -0.00408.

As to ATTCCCAG, the “PBM E-score” value was -0.0479.

ACTAGCAC: the “PBM E-score” value amounted to 0.0392.

CCGGTGAC: the “PBM E-score” value was 0.292.

For CTCCGATA, the “PBM E-score” value came to 0.318.

With ATTTTATA, the “PBM E-score” value turned out to be 0.0929.

AGTTGTAA: the “PBM E-score” value was -0.192.

Turning to AGCAATGG, the “PBM E-score” value was determined as 0.0681.

Consider GCTTCTAC, for which the “PBM E-score” value is -0.0648.

Consider ATGGTGAG, for which the “PBM E-score” value is -0.136.

Consider GACCAGTC, for which the “PBM E-score” value is -0.0453.

Regarding AGGACAGA, the “PBM E-score” value is -0.218.

As for CTTGAATA, the “PBM E-score” value was -0.0858.

For the sequence CCTCCCAA, the “PBM E-score” value is -0.0762.

For the sequence GGAGGAGA, the “PBM E-score” value was -0.149.

With CAAATTGC, the “PBM E-score” value is -0.121.

In the case of ACGCTGCT, the “PBM E-score” value is -0.0899.

As for GAACTAGA, the “PBM E-score” value was -0.0192.

In the case of AATGCGGG, the “PBM E-score” value is 0.23.

For CAGACATC, the “PBM E-score” value was -0.148.

On to ATGGAAGC, for which the “PBM E-score” value was -0.183.

For ATTAGGAG, the “PBM E-score” value was -0.109.

On to ACAGTGAT, for which the “PBM E-score” value was -0.196.

On to CCGATAAC, for which the “PBM E-score” value is 0.295.

As for GTTTTGAA, the “PBM E-score” value was -0.263.

In the case of GGCGGTAA, the “PBM E-score” value is 0.385.

As for AAGGTTCC, the “PBM E-score” value is -0.0938.

Turning to ATCGCACC, the “PBM E-score” value is 0.27.

Regarding CCAAGTGA, the “PBM E-score” value was -0.199.

On to GGCGTACC, for which the “PBM E-score” value was found to be 0.0465.

In the case of CATAGATA, the “PBM E-score” value was -0.125.

Consider TTCGCGAA, for which the “PBM E-score” value came out at 0.0501.

As for CGGAAAGC, the “PBM E-score” value is -0.0296.

For ATCTGCCC, the “PBM E-score” value turned out to be 0.128.

Turning to AAACTTAG, the “PBM E-score” value turned out to be 0.0147.

In the case of TCGATACA, the “PBM E-score” value is -0.00918.

CAGGCTGC: the “PBM E-score” value was -0.194.

For GTATTAAA, the “PBM E-score” value is 0.191.

For the sequence CATCGCTC, the “PBM E-score” value was -0.00533.

The values above are taken from the supplement of paper PMC3334620.
